We go through 63 sequences from article PMC12820563.

Some of the results follow. The list includes weakly bound sequences.

This assay addresses T1, MBP-FoxP3dN (UniProt Q99JB6).
T1 sequence: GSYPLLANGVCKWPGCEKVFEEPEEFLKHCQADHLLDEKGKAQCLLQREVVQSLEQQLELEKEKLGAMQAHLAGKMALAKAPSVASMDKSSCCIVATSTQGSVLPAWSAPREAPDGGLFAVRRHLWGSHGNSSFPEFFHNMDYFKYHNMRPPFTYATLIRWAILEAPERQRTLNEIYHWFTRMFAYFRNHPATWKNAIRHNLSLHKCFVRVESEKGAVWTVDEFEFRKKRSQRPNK
Kind of assay: PD-seq (MBP pull-down with sequencing). Particulars: 20 mM Tris-HCl pH 7.5, 100 mM NaCl, 1.5 mM MgCl2, 0.4 uM protein, 0.1 uM dsDNA library, 30 min, room temperature, amylose pull-down; high values mean tight binding; double strand, one strand shown.
In the case of “GATGATTGTTCTCCCAGCTGATGAATTGGTAAGATCGAGTAAACAAATTTTCCTAATCTTTCTGTTCAAGCGCCATCTAC”, the binding signal (RPM ratio (pull-down/input)) came to 0.265. For the sequence “GATGATTGTTCTCCCAGCTGATGAATTAAAAAGATCGAGTAAACAAATTTTCCTAATCTTTCTGTTCAAGCGCCATCTAC”, the binding signal (RPM ratio (pull-down/input)) worked out at 0.167.

Turning to “GATGATTGTTCTCCCAGCTGATGAATTTACGGTGTCGAGTAAACAAATTTTCCTAATCTTTCTGTTCAAGCGCCATCTAC”, the binding signal (RPM ratio (pull-down/input)) was determined as 0.764. Then “GATGATTGTTCTCCCAGCTGATGAATTCTTTAACTCGAGTAAACAAATTTTCCTAATCTTTCTGTTCAAGCGCCATCTAC”, with 0.201; and “GATGATTGTTCTCCCAGCTGATGAATTAATTAACTCGAGTAAACAAATTTTCCTAATCTTTCTGTTCAAGCGCCATCTAC”, with 0.403; and “GATGATTGTTCTCCCAGCTGATGAATTTACGCACTCGAGTAAACAAATTTTCCTAATCTTTCTGTTCAAGCGCCATCTAC”, with 0.784. Then “GATGATTGTTCTCCCAGCTGATGAATTCTACCAGTCGAGTAAACAAATTTTCCTAATCTTTCTGTTCAAGCGCCATCTAC”, with 0.207; and “GATGATTGTTCTCCCAGCTGATGAATTGTTCAGTTCGAGTAAACAAATTTTCCTAATCTTTCTGTTCAAGCGCCATCTAC”, with 0.356. In the case of “GATGATTGTTCTCCCAGCTGATGAATTGTGCTACTCGAGTAAACAAATTTTCCTAATCTTTCTGTTCAAGCGCCATCTAC”, the binding signal (RPM ratio (pull-down/input)) was determined as 2.9. Turning to “GATGATTGTTCTCCCAGCTGATGAATTCTCCCTTTCGAGTAAACAAATTTTCCTAATCTTTCTGTTCAAGCGCCATCTAC”, the binding signal (RPM ratio (pull-down/input)) was 0.236. Next, “GATGATTGTTCTCCCAGCTGATGAATTTGCACTGTCGAGTAAACAAATTTTCCTAATCTTTCTGTTCAAGCGCCATCTAC”: 0.816; “GATGATTGTTCTCCCAGCTGATGAATTCGTAACTTCGAGTAAACAAATTTTCCTAATCTTTCTGTTCAAGCGCCATCTAC”: 0.576.

Consider “GATGATTGTTCTCCCAGCTGATGAATTGTCTTTTTCGAGTAAACAAATTTTCCTAATCTTTCTGTTCAAGCGCCATCTAC”, for which the binding signal (RPM ratio (pull-down/input)) stood at 0.73. “GATGATTGTTCTCCCAGCTGATGAATTCAGCAGGTCGAGTAAACAAATTTTCCTAATCTTTCTGTTCAAGCGCCATCTAC”: the binding signal (RPM ratio (pull-down/input)) was determined as 0.471. “GATGATTGTTCTCCCAGCTGATGAATTCCGGTCGTCGAGTAAACAAATTTTCCTAATCTTTCTGTTCAAGCGCCATCTAC”: the binding signal (RPM ratio (pull-down/input)) came out at 0.394. “GATGATTGTTCTCCCAGCTGATGAATTCAGTCCCTCGAGTAAACAAATTTTCCTAATCTTTCTGTTCAAGCGCCATCTAC”: the binding signal (RPM ratio (pull-down/input)) came out at 0.438. Then “GATGATTGTTCTCCCAGCTGATGAATTCTTCACCTCGAGTAAACAAATTTTCCTAATCTTTCTGTTCAAGCGCCATCTAC”, with 0.246; and “GATGATTGTTCTCCCAGCTGATGAATTGGAATCGTCGAGTAAACAAATTTTCCTAATCTTTCTGTTCAAGCGCCATCTAC”, with 0.354; and “GATGATTGTTCTCCCAGCTGATGAATTAGTTGCTTCGAGTAAACAAATTTTCCTAATCTTTCTGTTCAAGCGCCATCTAC”, with 3.43. Turning to “GATGATTGTTCTCCCAGCTGATGAATTTAAATTTTCGAGTAAACAAATTTTCCTAATCTTTCTGTTCAAGCGCCATCTAC”, the binding signal (RPM ratio (pull-down/input)) is 0.292.

On to “GATGATTGTTCTCCCAGCTGATGAATTCACCGATTCGAGTAAACAAATTTTCCTAATCTTTCTGTTCAAGCGCCATCTAC”, for which the binding signal (RPM ratio (pull-down/input)) amounted to 0.28. Next, “GATGATTGTTCTCCCAGCTGATGAATTAAAGAGCTCGAGTAAACAAATTTTCCTAATCTTTCTGTTCAAGCGCCATCTAC”: 0.206; “GATGATTGTTCTCCCAGCTGATGAATTGACGTCTTCGAGTAAACAAATTTTCCTAATCTTTCTGTTCAAGCGCCATCTAC”: 0.448; “GATGATTGTTCTCCCAGCTGATGAATTATGCTAATCGAGTAAACAAATTTTCCTAATCTTTCTGTTCAAGCGCCATCTAC”: 0.83. For “GATGATTGTTCTCCCAGCTGATGAATTCGACTATTCGAGTAAACAAATTTTCCTAATCTTTCTGTTCAAGCGCCATCTAC”, the binding signal (RPM ratio (pull-down/input)) was 0.481. Then “GATGATTGTTCTCCCAGCTGATGAATTCTTCGGGTCGAGTAAACAAATTTTCCTAATCTTTCTGTTCAAGCGCCATCTAC”, with 0.219; and “GATGATTGTTCTCCCAGCTGATGAATTGTATATGTCGAGTAAACAAATTTTCCTAATCTTTCTGTTCAAGCGCCATCTAC”, with 3.17. Then “GATGATTGTTCTCCCAGCTGATGAATTGGCATATTCGAGTAAACAAATTTTCCTAATCTTTCTGTTCAAGCGCCATCTAC”, with 0.904; and “GATGATTGTTCTCCCAGCTGATGAATTTGATTAGTCGAGTAAACAAATTTTCCTAATCTTTCTGTTCAAGCGCCATCTAC”, with 3.8. Regarding “GATGATTGTTCTCCCAGCTGATGAATTCCCGGATTCGAGTAAACAAATTTTCCTAATCTTTCTGTTCAAGCGCCATCTAC”, the binding signal (RPM ratio (pull-down/input)) was found to be 0.183.

On to “GATGATTGTTCTCCCAGCTGATGAATTAAGTACTTCGAGTAAACAAATTTTCCTAATCTTTCTGTTCAAGCGCCATCTAC”, for which the binding signal (RPM ratio (pull-down/input)) was determined as 0.487. As for “GATGATTGTTCTCCCAGCTGATGAATTATTAGCATCGAGTAAACAAATTTTCCTAATCTTTCTGTTCAAGCGCCATCTAC”, the binding signal (RPM ratio (pull-down/input)) worked out at 1.46. Next, “GATGATTGTTCTCCCAGCTGATGAATTTGGTCAATCGAGTAAACAAATTTTCCTAATCTTTCTGTTCAAGCGCCATCTAC”: 0.298.

“GATGATTGTTCTCCCAGCTGATGAATTGGAAACGTCGAGTAAACAAATTTTCCTAATCTTTCTGTTCAAGCGCCATCTAC”: the binding signal (RPM ratio (pull-down/input)) was 0.241. Next, “GATGATTGTTCTCCCAGCTGATGAATTCAAATCATCGAGTAAACAAATTTTCCTAATCTTTCTGTTCAAGCGCCATCTAC”: 0.446. With “GATGATTGTTCTCCCAGCTGATGAATTTTACCCTTCGAGTAAACAAATTTTCCTAATCTTTCTGTTCAAGCGCCATCTAC”, the binding signal (RPM ratio (pull-down/input)) was 0.241.

Regarding “GATGATTGTTCTCCCAGCTGATGAATTTCGTTCCTCGAGTAAACAAATTTTCCTAATCTTTCTGTTCAAGCGCCATCTAC”, the binding signal (RPM ratio (pull-down/input)) was determined as 0.644.

With “GATGATTGTTCTCCCAGCTGATGAATTCATACCCTCGAGTAAACAAATTTTCCTAATCTTTCTGTTCAAGCGCCATCTAC”, the binding signal (RPM ratio (pull-down/input)) was determined as 0.328. Next, “GATGATTGTTCTCCCAGCTGATGAATTGGGATCTTCGAGTAAACAAATTTTCCTAATCTTTCTGTTCAAGCGCCATCTAC”: 0.32. Next, “GATGATTGTTCTCCCAGCTGATGAATTCACCGGATCGAGTAAACAAATTTTCCTAATCTTTCTGTTCAAGCGCCATCTAC”: 0.193.

As to “GATGATTGTTCTCCCAGCTGATGAATTCACTTAATCGAGTAAACAAATTTTCCTAATCTTTCTGTTCAAGCGCCATCTAC”, the binding signal (RPM ratio (pull-down/input)) came to 0.236. Regarding “GATGATTGTTCTCCCAGCTGATGAATTGGGAGGATCGAGTAAACAAATTTTCCTAATCTTTCTGTTCAAGCGCCATCTAC”, the binding signal (RPM ratio (pull-down/input)) was determined as 0.231. For the sequence “GATGATTGTTCTCCCAGCTGATGAATTTAACTTCTCGAGTAAACAAATTTTCCTAATCTTTCTGTTCAAGCGCCATCTAC”, the binding signal (RPM ratio (pull-down/input)) amounted to 0.373. As to “GATGATTGTTCTCCCAGCTGATGAATTAGGCCCGTCGAGTAAACAAATTTTCCTAATCTTTCTGTTCAAGCGCCATCTAC”, the binding signal (RPM ratio (pull-down/input)) turned out to be 1.25. With “GATGATTGTTCTCCCAGCTGATGAATTGAACTCGTCGAGTAAACAAATTTTCCTAATCTTTCTGTTCAAGCGCCATCTAC”, the binding signal (RPM ratio (pull-down/input)) worked out at 0.287.

“GATGATTGTTCTCCCAGCTGATGAATTTACGTATTCGAGTAAACAAATTTTCCTAATCTTTCTGTTCAAGCGCCATCTAC”: the binding signal (RPM ratio (pull-down/input)) came to 1.36. As for “GATGATTGTTCTCCCAGCTGATGAATTATTAGGCTCGAGTAAACAAATTTTCCTAATCTTTCTGTTCAAGCGCCATCTAC”, the binding signal (RPM ratio (pull-down/input)) is 0.398.

For the sequence “GATGATTGTTCTCCCAGCTGATGAATTGTGCAACTCGAGTAAACAAATTTTCCTAATCTTTCTGTTCAAGCGCCATCTAC”, the binding signal (RPM ratio (pull-down/input)) was 6.92. Then “GATGATTGTTCTCCCAGCTGATGAATTGACCTTGTCGAGTAAACAAATTTTCCTAATCTTTCTGTTCAAGCGCCATCTAC”, with 0.267. Consider “GATGATTGTTCTCCCAGCTGATGAATTAGTCCTCTCGAGTAAACAAATTTTCCTAATCTTTCTGTTCAAGCGCCATCTAC”, for which the binding signal (RPM ratio (pull-down/input)) amounted to 0.663. With “GATGATTGTTCTCCCAGCTGATGAATTGGATGCCTCGAGTAAACAAATTTTCCTAATCTTTCTGTTCAAGCGCCATCTAC”, the binding signal (RPM ratio (pull-down/input)) worked out at 1.54. In the case of “GATGATTGTTCTCCCAGCTGATGAATTTTCGAGCTCGAGTAAACAAATTTTCCTAATCTTTCTGTTCAAGCGCCATCTAC”, the binding signal (RPM ratio (pull-down/input)) stood at 0.208. As to “GATGATTGTTCTCCCAGCTGATGAATTACGTGGTTCGAGTAAACAAATTTTCCTAATCTTTCTGTTCAAGCGCCATCTAC”, the binding signal (RPM ratio (pull-down/input)) came to 0.913.

On to “GATGATTGTTCTCCCAGCTGATGAATTGTCTACATCGAGTAAACAAATTTTCCTAATCTTTCTGTTCAAGCGCCATCTAC”, for which the binding signal (RPM ratio (pull-down/input)) worked out at 1.49. Next, “GATGATTGTTCTCCCAGCTGATGAATTCGTCGTTTCGAGTAAACAAATTTTCCTAATCTTTCTGTTCAAGCGCCATCTAC”: 1.41. Next, “GATGATTGTTCTCCCAGCTGATGAATTCCAGATATCGAGTAAACAAATTTTCCTAATCTTTCTGTTCAAGCGCCATCTAC”: 0.282; “GATGATTGTTCTCCCAGCTGATGAATTTTCGTGTTCGAGTAAACAAATTTTCCTAATCTTTCTGTTCAAGCGCCATCTAC”: 0.61; “GATGATTGTTCTCCCAGCTGATGAATTAACGTGGTCGAGTAAACAAATTTTCCTAATCTTTCTGTTCAAGCGCCATCTAC”: 0.354. Then “GATGATTGTTCTCCCAGCTGATGAATTACAAGGGTCGAGTAAACAAATTTTCCTAATCTTTCTGTTCAAGCGCCATCTAC”, with 0.338; and “GATGATTGTTCTCCCAGCTGATGAATTCCCCTCCTCGAGTAAACAAATTTTCCTAATCTTTCTGTTCAAGCGCCATCTAC”, with 0.25. As to “GATGATTGTTCTCCCAGCTGATGAATTAGCAGGCTCGAGTAAACAAATTTTCCTAATCTTTCTGTTCAAGCGCCATCTAC”, the binding signal (RPM ratio (pull-down/input)) stood at 0.407. With “GATGATTGTTCTCCCAGCTGATGAATTCTACCCGTCGAGTAAACAAATTTTCCTAATCTTTCTGTTCAAGCGCCATCTAC”, the binding signal (RPM ratio (pull-down/input)) came to 0.246.

For “GATGATTGTTCTCCCAGCTGATGAATTAATATCGTCGAGTAAACAAATTTTCCTAATCTTTCTGTTCAAGCGCCATCTAC”, the binding signal (RPM ratio (pull-down/input)) came to 0.654.
